This is an account of results in a collection of fitness landscapes (doi:10.1126/science.1257360).

The other results are listed elsewhere or left out.

The chains are these.
B1: PhoQ; a variant is named by its letters at X, in order, P23837 (parent)
chain: MKKLLRLFFPLSLRVRFLLATAAVVLVLSLAYGMVALIGYSVSFDKTTFRLLRGESNLFYTLAKWENNKLHVELPENIDKQSPTMTLIYDENGQLLWAQRDVPWLMKMIQPDWLKSNGFHEIEADVNDTSLLLSGDHSIQQQLQEVREDDDDAEMTHSVAVNVYPATSRMPKLTIVVVDTIPVELKSSYMVWSWFIYVLSANLLLVIPLLWVAAWWSLRPIEALAKEVRELEEHNRELLNPATTRELTSLVRNLNRLLKSERERYDKYRTTLTDLTHSLKTPLXXLQXXLRSLRSEKMSVSDAEPVMLEQISRISQQIGYYLHRASMRGGTLLSRELHPVAPLLDNLTSALNKVYQRKGVNISLDISPEISFVGEQNDFVEVMGNVLDNACKYCLEFVEISARQTDEHLYIVVEDDGPGIPLSKREVIFDRGQRVDTLRPGQGVGLAVAREITEQYEGKIVAGESMLGGARMEVIFGRQHSAPKDE

This assay covers variants of B1. Put plainly: enrichment ratio after two sorts for PhoP signalling (ratio (wild type AVST 3.29)); higher = more functional. The conditions noted are these: with PhoP (E. coli).
As for FHCS, the enrichment ratio was no more than 0.25.

As for WRKS, the enrichment ratio was no more than 0.25.

In the case of HFIG, the enrichment ratio was no more than 0.25.

STEE: the enrichment ratio was no more than 0.25.

Take QKVY: the enrichment ratio is no more than 0.25.

In the case of LHRH, the enrichment ratio is no more than 0.25.

In the case of HMRQ, the enrichment ratio is no more than 0.25.

On to HCDY, for which the enrichment ratio is no more than 0.25.

Take GVRV: the enrichment ratio is no more than 0.25.

For VCAY, the enrichment ratio was no more than 0.25.

Regarding LEEA, the enrichment ratio was no more than 0.25.

EDPG: the enrichment ratio was no more than 0.25.

Consider QEHR, for which the enrichment ratio is no more than 0.25.

For the variant WKAS, the enrichment ratio is no more than 0.25.

In the case of ASQC, the enrichment ratio is no more than 0.25.

For LVIS, the enrichment ratio is no more than 0.25.

NFPW: the enrichment ratio was no more than 0.25.

With ANRM, the enrichment ratio was no more than 0.25.

With TCIM, the enrichment ratio came to 0.447.

HESW: the enrichment ratio is no more than 0.25.

With KESH, the enrichment ratio is no more than 0.25.

Consider IHMI, for which the enrichment ratio was no more than 0.25.

With GIKG, the enrichment ratio is no more than 0.25.

In the case of SGFH, the enrichment ratio was no more than 0.25.

KKRL: the enrichment ratio is no more than 0.25.

Regarding PKDT, the enrichment ratio was no more than 0.25.

Regarding FMSN, the enrichment ratio is no more than 0.25.

For GRRW, the enrichment ratio was no more than 0.25.

On to RTKR, for which the enrichment ratio was no more than 0.25.

Turning to NSDD, the enrichment ratio is no more than 0.25.

RNVK: the enrichment ratio was no more than 0.25.

As to GQIK, the enrichment ratio is no more than 0.25.

On to KSFY, for which the enrichment ratio is no more than 0.25.

For VYIN, the enrichment ratio was no more than 0.25.

Turning to DLNC, the enrichment ratio was no more than 0.25.

KLCR: the enrichment ratio was no more than 0.25.

YLMN: the enrichment ratio was determined as 0.543.

In the case of IDTD, the enrichment ratio was no more than 0.25.

As to YYMF, the enrichment ratio is no more than 0.25.

HWNG: the enrichment ratio was no more than 0.25.

ITFC: the enrichment ratio was no more than 0.25.

Take MHLV: the enrichment ratio is no more than 0.25.

As to RWTA, the enrichment ratio was no more than 0.25.

As to AQGM, the enrichment ratio was determined as 13.3.

KNFR: the enrichment ratio is no more than 0.25.

For GVSP, the enrichment ratio is no more than 0.25.

HLGV: the enrichment ratio was no more than 0.25.

Regarding HPLR, the enrichment ratio was no more than 0.25.

As for AWGR, the enrichment ratio was no more than 0.25.

Take RFVS: the enrichment ratio is no more than 0.25.

For the variant MYML, the enrichment ratio is no more than 0.25.

Take PYYA: the enrichment ratio is no more than 0.25.

Turning to AATT, the enrichment ratio was 5.04.

Consider FAVS, for which the enrichment ratio was no more than 0.25.

In the case of FASS, the enrichment ratio is no more than 0.25.

Take WHAM: the enrichment ratio is no more than 0.25.

On to YNLH, for which the enrichment ratio is no more than 0.25.

As for VIDF, the enrichment ratio was no more than 0.25.

Regarding RCCC, the enrichment ratio was no more than 0.25.

Regarding GWIC, the enrichment ratio was no more than 0.25.

As for TCSC, the enrichment ratio is 12.3.

As to VYHS, the enrichment ratio is no more than 0.25.

In the case of AASL, the enrichment ratio was found to be 6.87.

As for VNRG, the enrichment ratio is no more than 0.25.

With AQYL, the enrichment ratio is no more than 0.25.

In the case of FRSQ, the enrichment ratio was no more than 0.25.

Consider AFSL, for which the enrichment ratio was no more than 0.25.

With VCPN, the enrichment ratio is no more than 0.25.

With MYLM, the enrichment ratio is no more than 0.25.

For FVFP, the enrichment ratio is no more than 0.25.

With MEDS, the enrichment ratio was no more than 0.25.

Turning to QNFL, the enrichment ratio was no more than 0.25.

On to MNLK, for which the enrichment ratio was no more than 0.25.

Take LTYV: the enrichment ratio is no more than 0.25.

For NKFK, the enrichment ratio was no more than 0.25.

Turning to VRLI, the enrichment ratio is no more than 0.25.

For the variant LMWC, the enrichment ratio was no more than 0.25.

Take RMVH: the enrichment ratio was no more than 0.25.

Turning to FLKM, the enrichment ratio is no more than 0.25.

Consider THMT, for which the enrichment ratio is no more than 0.25.

Take VTDG: the enrichment ratio was no more than 0.25.

Turning to AGGD, the enrichment ratio was no more than 0.25.

For the variant PRGC, the enrichment ratio is no more than 0.25.

On to FAPW, for which the enrichment ratio was no more than 0.25.

For the variant WFGP, the enrichment ratio was determined as 0.58.

On to FPKI, for which the enrichment ratio was no more than 0.25.

Regarding GFQW, the enrichment ratio is no more than 0.25.

For the variant HWYK, the enrichment ratio is no more than 0.25.

For the variant VVQW, the enrichment ratio was no more than 0.25.

On to YWFN, for which the enrichment ratio was no more than 0.25.

Consider SYCQ, for which the enrichment ratio was no more than 0.25.

Take ELAN: the enrichment ratio is no more than 0.25.

As to MNNI, the enrichment ratio was no more than 0.25.

In the case of LGPE, the enrichment ratio was no more than 0.25.

As to FALE, the enrichment ratio is 4.65.

Turning to HLWP, the enrichment ratio was no more than 0.25.

Regarding KRVS, the enrichment ratio is no more than 0.25.

As to VPGF, the enrichment ratio was no more than 0.25.

With AVLP, the enrichment ratio was no more than 0.25.

Turning to KSCT, the enrichment ratio is no more than 0.25.

As for RQFS, the enrichment ratio is no more than 0.25.

Consider PFVW, for which the enrichment ratio was no more than 0.25.

Regarding AGYR, the enrichment ratio was no more than 0.25.

For ICRR, the enrichment ratio was no more than 0.25.

As to FYAE, the enrichment ratio was no more than 0.25.

As for RDNY, the enrichment ratio is no more than 0.25.

As for SMIH, the enrichment ratio was no more than 0.25.

Turning to TVCM, the enrichment ratio was determined as 2.78.

Regarding IPMC, the enrichment ratio is no more than 0.25.

On to VYDL, for which the enrichment ratio is no more than 0.25.

With WNNF, the enrichment ratio is no more than 0.25.

In the case of VQAD, the enrichment ratio was no more than 0.25.

With DQMA, the enrichment ratio was no more than 0.25.

Turning to PCKK, the enrichment ratio was no more than 0.25.

With SIRD, the enrichment ratio is no more than 0.25.

Turning to TRVM, the enrichment ratio worked out at 7.9.

Take DSDN: the enrichment ratio is no more than 0.25.

For the variant DSHC, the enrichment ratio was no more than 0.25.

As to DSTQ, the enrichment ratio was no more than 0.25.

Regarding PMNS, the enrichment ratio is no more than 0.25.

Take RAQK: the enrichment ratio was no more than 0.25.

Turning to RNCP, the enrichment ratio was no more than 0.25.

Regarding WYVQ, the enrichment ratio was no more than 0.25.

On to GERP, for which the enrichment ratio is no more than 0.25.

Regarding KMEQ, the enrichment ratio is no more than 0.25.

As to ASRH, the enrichment ratio is no more than 0.25.

Regarding MWMY, the enrichment ratio was no more than 0.25.

FWRT: the enrichment ratio is no more than 0.25.

As for TLHW, the enrichment ratio is no more than 0.25.

As to SVSA, the enrichment ratio came to 8.33.

MIHC: the enrichment ratio was no more than 0.25.

As for RTPP, the enrichment ratio is no more than 0.25.

In the case of AWPA, the enrichment ratio was no more than 0.25.

With PDDH, the enrichment ratio was no more than 0.25.

Turning to FYHE, the enrichment ratio is no more than 0.25.

Turning to KRIS, the enrichment ratio was no more than 0.25.

With THHR, the enrichment ratio is no more than 0.25.

As for TMDN, the enrichment ratio was no more than 0.25.

Regarding DCEV, the enrichment ratio was no more than 0.25.

On to SACV, for which the enrichment ratio was found to be 9.07.

On to IYSH, for which the enrichment ratio was no more than 0.25.

Consider SQYL, for which the enrichment ratio was no more than 0.25.

With HEAP, the enrichment ratio is no more than 0.25.

PQIW: the enrichment ratio was no more than 0.25.

On to VEDI, for which the enrichment ratio is no more than 0.25.

As to NFAF, the enrichment ratio is no more than 0.25.

Turning to DIYI, the enrichment ratio was no more than 0.25.

For the variant GLQW, the enrichment ratio is no more than 0.25.

Take EDQC: the enrichment ratio was no more than 0.25.

CFPN: the enrichment ratio was no more than 0.25.

As to LHHF, the enrichment ratio is no more than 0.25.

Consider EGFA, for which the enrichment ratio was no more than 0.25.

Consider WQTR, for which the enrichment ratio was no more than 0.25.
